# According to the supplement of paper PMC4166925:
# ± gives the standard deviation of the averaged measurements. Whole data set: some 33,000 sequences, median “E-score (dimensionless, -0.5 to 0.5)” near -0.049, cut for the highest 2% near 0.37. The list shows a part of the results.
# System: T1, PmTbr T-box DNA-binding domain (GST fusion)
# T1 sequence: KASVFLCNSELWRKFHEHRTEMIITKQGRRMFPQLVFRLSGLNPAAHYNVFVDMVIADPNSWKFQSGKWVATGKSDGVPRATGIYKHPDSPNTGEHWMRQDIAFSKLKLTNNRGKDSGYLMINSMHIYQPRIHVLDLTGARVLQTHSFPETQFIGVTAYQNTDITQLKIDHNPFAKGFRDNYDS
# Experiment: PBM E-score of 8-mer (E-score (dimensionless, -0.5 to 0.5)); Tbr is Tbrain of the sea star Patiria miniata (Pm) or the sea urchin Strongylocentrotus purpuratus (Sp); higher = stronger binding preference; most listed sequences are background and not binding sites
# Details: the construct has about 5 more residues each side
# Summary of the method: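 Universal Agilent oligonucleotide arrays, made double-stranded by primer extension, were incubated with 200 nM GST-fused Tbr T-box DNA-binding domain in PBS (pH 7.5). The protein was expressed in BL21 E. coli at 20 °C and purified by glutathione affinity chromatography. After scanning and quantification, the Universal PBM Analysis Suite assigned an enrichment E-score to each ungapped 8-mer, averaged over duplicate arrays.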
row,Sequence,PBM E-score of 8-mer
1,TGCTCGAA,-0.311 ± 0.1
2,CCCTAAAC,-0.147 ± 0.068
3,CGCGAGCA,0.153 ± 0.07
4,ATAGAATG,-0.183 ± 0.078
5,ATACTAAT,-0.0663 ± 0.031
6,GCCATGCC,0.0291 ± 0.057
7,GCATTGGA,-0.209 ± 0.011
8,GAAGGGTA,0.00266 ± 0.009
9,CATAATAC,0.0267 ± 0.045
10,CAGATATG,-0.0935 ± 0.078
11,ATTCTAGC,0.0324 ± 0.064
12,TCAAAGAA,-0.17 ± 0.033
13,GTGGGTTA,0.0414 ± 0.051
14,AGGCTCAC,-0.0762 ± 0.054
15,AGCATTTC,0.00277 ± 0.021
16,CACTTAAA,0.158 ± 0.01
17,CTTCGGAA,-0.201 ± 0.042
18,GACCCCCC,-0.339 ± 0.087
19,ATACTTCG,-0.0455 ± 0.0063
20,TAAAAGCA,-0.0606 ± 0.1
21,TCTTGGAA,-0.184 ± 0.066
22,AGGCCACC,-0.157 ± 0.011
23,AGAATAAT,-0.197 ± 0.12
24,GATCTTGA,0.0546 ± 0.058
25,AAGCGCCG,-0.0564 ± 0.022

row,Sequence,PBM E-score of 8-mer
1,CCAACAAC,0.0262 ± 0.0053
2,GGACGAAA,-0.0641 ± 0.055
3,AAAGTTGA,0.132 ± 0.026
4,CCTCTACA,-0.0666 ± 0.0084
5,ATGTTTGG,-0.083 ± 0.1
6,AATCCTCC,-0.12 ± 0.052
7,ACGGCTGA,-0.164 ± 0.024
8,CCTTCTTC,-0.0984 ± 0.033
9,AGCGACAC,0.317 ± 0.054
10,AACTGTCG,0.272 ± 0.0081
11,AGCCGACA,0.165 ± 0.007
12,CTATCTCC,-0.155 ± 0.013
13,CGGTGATC,-0.042 ± 0.075
14,TGAACGCA,-0.234 ± 0.048
15,AATCTTCG,-0.0794 ± 0.0073
16,ATAAGCAT,-0.059 ± 0.059
17,CAGGTGGG,0.268 ± 0.043
18,CAAGATAC,-0.0606 ± 0.075
19,ATGGAAGA,-0.342 ± 0.028
20,ATGTATAA,-0.0805 ± 0.12
21,AAGCGATG,-0.00845 ± 0.0036
22,GGAGATTA,-0.0891 ± 0.063
23,TGGGCCAA,-0.093 ± 0.046
24,GAAAACAA,-0.0678 ± 0.067
25,CATTACGC,0.0454 ± 0.039

row,Sequence,PBM E-score of 8-mer
1,ATGTGGGC,-0.0882 ± 0.093
2,CGATAGGA,-0.0999 ± 0.11
3,ACGGACGG,-0.111 ± 0.053
4,CACAGCTA,0.2796 ± 0.0012
5,GCTCCAGA,-0.259 ± 0.031
6,AATCCCAC,0.0797 ± 0.054
7,CGTCGCCC,0.162 ± 0.026
8,CCCCAGCC,-0.0201 ± 0.05
9,CGCACCCC,0.325 ± 0.019
10,TTAGCCAA,-0.122 ± 0.032
11,TAACAGAA,-0.0289 ± 0.036
12,CGTTCGCA,0.38 ± 0.037
13,CCGGGTAG,0.0105 ± 0.028
14,CGTAACGA,-0.221 ± 0.054
15,ACTGCGGC,0.0302 ± 0.051
16,GCTGGGAA,0.05 ± 0.052
17,ATCTCTCA,0.226 ± 0.023
18,TAAGTGTA,0.217 ± 0.021
19,CCTTTATC,-0.023 ± 0.017
20,CTCCCAGC,0.0766 ± 0.048
21,TAAGGATA,-0.151 ± 0.01
22,ATTATTCA,-0.296 ± 0.037
23,CATTTTGA,-0.186 ± 0.029
24,CGCTTAAA,0.131 ± 0.024
25,CGACCCCG,-0.0978 ± 0.14

row,Sequence,PBM E-score of 8-mer
1,AGACTACG,-0.293 ± 0.006
2,GCATACAC,-0.0288 ± 0.0062
3,AAATATAG,-0.116 ± 0.11
4,GAGGCTCA,-0.187 ± 0.026
5,CAGTGTAC,-0.073 ± 0.034
6,TAACAATA,0.132 ± 0.022
7,ATGGTTGA,0.0719 ± 0.042
8,ACGGCCAC,0.0792 ± 0.025
9,CACAACTA,0.189 ± 0.021
10,CTCACAAA,-0.00988 ± 0.043
11,CGCGTGGC,0.103 ± 0.049
12,AATTCAGG,-0.258 ± 0.046
13,AATCAATG,-0.0237 ± 0.023
14,GGTGCTAA,0.4753 ± 0.00081
15,AATCTACG,-0.133 ± 0.07
16,GTGTGAGA,0.4583 ± 0.0027
17,AATGTTAG,-0.266 ± 0.027
18,GCTCCTGA,-0.206 ± 0.08
19,CACAAGCG,0.0575 ± 0.0014
20,GAGAGAAC,0.0287 ± 0.025
21,ACTGGAAT,-0.239 ± 0.0024
22,CGCAGGGC,0.0745 ± 0.024
23,CGGAATAG,-0.219 ± 0.012
24,TATCTTCA,-0.056 ± 0.057
25,CGGTTGCC,-0.206 ± 0.045

row,Sequence,PBM E-score of 8-mer
1,AGAGTGTG,0.34 ± 0.01
2,ACAGTTAG,0.0702 ± 0.027
3,GACTCGTA,-0.107 ± 0.025
4,ACACATAG,0.268 ± 0.022
5,CACTATGG,0.12 ± 0.036
6,CTTTACGC,-0.0839 ± 0.019
7,CAATCCAG,0.00948 ± 0.028
8,AGCGTCAT,0.134 ± 0.021
9,CAAAGCGG,-0.1864 ± 0.00049
10,TCTGACAA,0.112 ± 0.048
11,CCGTTCCA,0.0138 ± 0.0051
12,CGCAACTA,0.167 ± 0.0037
13,AGCTATTA,-0.0848 ± 0.081
14,ATAATTCA,0.129 ± 0.036
15,GAAGGCGC,0.271 ± 0.0057
16,GAGCCTAA,-0.074 ± 0.065
17,CGTTAACG,0.266 ± 0.015
18,CAAGAACC,-0.1413 ± 0.00053
19,TGCCGTAA,-0.185 ± 0.0069
20,AAAGACCG,-0.149 ± 0.032
21,CCGACCTA,-0.179 ± 0.0083
22,GAAACTGA,-0.0776 ± 0.023
23,ATCGAGAT,-0.0194 ± 0.029
24,GCACTCCC,0.0702 ± 0.12
25,TCGGTCAA,-0.0753 ± 0.01

row,Sequence,PBM E-score of 8-mer
1,CGTCGCTA,0.0903 ± 0.017
2,CGCCTTGA,0.153 ± 0.016
3,CTCCCCGA,-0.16 ± 0.011
4,ACATAAGT,0.119 ± 0.016
5,GATTAAGC,-0.115 ± 0.034
6,AAACTTCA,-0.047 ± 0.1
7,CAAATCTG,0.131 ± 0.044
8,AATTTAGC,0.0784 ± 0.11
9,AAAGTTCT,-0.147 ± 0.056
10,ACGGCGAT,-0.115 ± 0.06
11,CACTACAA,0.0388 ± 0.036
12,ACGCGACG,0.237 ± 0.016
13,CGACCTAA,-0.135 ± 0.037
14,CGAGTCTC,-0.153 ± 0.0017
15,GTTTATAA,-0.0711 ± 0.03
16,ACCCGTGC,0.0856 ± 0.025
17,CAAGATTG,0.165 ± 0.0046
18,CCTGCAGG,-0.11 ± 0.0062
19,CATAGTCA,-0.017 ± 0.036
20,CACCCCTC,0.278 ± 0.0062
21,AGAAGAGG,-0.155 ± 0.022
22,ATAACTAC,-0.184 ± 0.0098
23,GCCACCGC,-0.0625 ± 0.015
24,ATCGGTTA,-0.0435 ± 0.019
25,GAAGAAAA,0.00828 ± 0.14

row,Sequence,PBM E-score of 8-mer
1,CTTTATTC,-0.129 ± 0.012
2,CCCTGGCC,-0.186 ± 0.0043
3,CATAGGAC,-0.177 ± 0.025
4,CAGAACGA,-0.068 ± 0.014
5,AGATCGCC,0.118 ± 0.021
6,AGAAACCA,-0.162 ± 0.068
7,GGGGAAAA,-0.0423 ± 0.045
8,ATCCTAGC,0.115 ± 0.025
9,CGGCTGCA,-0.132 ± 0.04
10,GTTCTACA,-0.0213 ± 0.066
11,ACCTAAAC,0.216 ± 0.075
12,CCCATACA,-0.193 ± 0.039
13,ATGCCTGG,-0.292 ± 0.02
14,ACTTGCAT,-0.0498 ± 0.1
15,GCTACGTA,-0.187 ± 0.0032
16,ATTGCAGC,-0.0944 ± 0.071
17,ACAGCGGG,0.101 ± 0.014
18,CTTAACTA,0.00909 ± 0.057
19,ATCTTAAG,-0.0687 ± 0.01
20,CTAGTGAG,0.147 ± 0.021
21,CGTCTGAC,-0.0571 ± 0.042
22,CAGGTGGA,0.0502 ± 0.00076
